Test results taken from PubChem BioAssay AID686978 (National Center for Advancing Translational Sciences (NCATS), 2013).
About 64,000 (15%) of roughly 420,000 compounds were called active. Inconclusive means that the source gave no clear call. Such entries were picked first, then a sample of the others. Calls follow the shape of the dose curve; as a rule, active = well fitted inhibition curve with a large enough effect; inconclusive = small, poorly fitted or top-dose-only effect; inactive = flat fitted curve, though single readings scatter. No potency is given beside an inconclusive call; the fits are too rough.

assay: qHTS for Inhibitors of human tyrosyl-DNA phosphodiesterase 1 (TDP1): qHTS in cells in absence of CPT; settings: DT40 Tdp1-/- hTDP1 cells, no CPT, ATP luminescence, 48 h; activity change, negative = growth inhibition: at 46.2 µM (top of the series); also: nearly all actives have a fitted effect of over 55% in size
Outline: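 Camptothecin absent (DMSO only). Human TDP1-complemented DT40 knockout cells, 400 cells/well, 37 °C for minimum 48 hr; ATP measured via CellTiter-Glo, 30 min dark incubation, luminescence.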
% is scaled to controls: 0 for no effect and ±100 for the full control effect; potency is read from the fitted curve at half-maximal effect; tags tell the direction and shape of the fitted curve.

| SMILES | activity change, negative = growth inhibition | Potency |
| --- | --- | --- |
| CS(=O)(=O)c1ccc2nc(NC(=O)c3ccccc3Cl)sc2c1 | inactive: -6.03% |  |
| Cc1ccc(-c2nc(CS(=O)(=O)CC(=O)NC(C)CCc3ccccc3)c(C)o2)cc1 (stereo not given) |  | inconclusive [inhibitor, single point] |
| COc1ccc(NC(=O)C2CCC(CNS(=O)(=O)c3csc(C(N)=O)c3)CC2)cc1OC (stereo not given) | inactive: 18.6% |  |
| COc1ccc(NC(=O)c2cc([N+](=O)[O-])ccc2N2CCN(C)CC2)cc1 |  | inconclusive [inhibitor, partial curve, poor fit] |
| COc1ccc(CCN(C)C(=O)c2ccc(C)c(S(=O)(=O)N3CCCCC3)c2)cc1OC |  | inconclusive [inhibitor, single point] |
| COc1ccccc1NC(=O)Cc1nnc(SCC(=O)Nc2ccccc2F)n1C |  | inconclusive [inhibitor, single point] |
| O=C(CN1CCCC1)N1c2ccccc2Sc2ccc(Cl)cc21 |  | inconclusive [inhibitor, single point] |
| COc1ccccc1-c1sc2ccccc2c1-c1ccc(OCCN2CCCCC2)cc1 |  | active: 14.6 µM |
| CCOC(=O)C1CCN(C(=O)CCNC(=O)c2ccccc2OC)CC1 | inactive: -19% |  |
| CC1=C(C(=O)N(C)C)CC(CC(=O)NCC2CCCCC2)C(=O)N1CCC1=CCCCC1 (stereo not given) |  | inconclusive [inhibitor, single point] |
| O=C(Nc1ccc(C(=O)O)cc1)/C(=C/c1ccc([N+](=O)[O-])cc1)NC(=O)c1ccccc1 | inactive: -11.3% |  |
| CC(C)C[C@@H](CN1CCC[C@H]1CN1C(=O)C(=O)NC[C@@H]1Cc1ccc(O)cc1)N1C[C@H](Cc2ccccc2)N(CC2CCCCC2)C(=O)C1=O |  | inconclusive [inhibitor, partial curve] |
| CCC(=O)c1ccc(OCc2ccc(C#N)cc2)cc1 | inconclusive: -30.9% [inhibitor] |  |
| COc1cccc(NC(=S)NC(=O)/C=C/c2ccco2)c1 |  | active: 14.6 µM |
| CC1CC(C)(C)NC(=S)N1CCCC(=O)NCc1ccccc1 (stereo not given) | inactive: -7.84% |  |
| O=C1OC(c2ccc3ccccc3c2O)(c2ccc3ccccc3c2O)c2ccccc21 |  | active: 5.17 µM |
| O=C(NC1CCCC1)C1CCCN1C(=O)Oc1ccccc1 (stereo not given) | inactive: 18.5% |  |
| Cc1ccc(Nc2nc3ccccc3n3cnnc23)cc1Cl |  | inconclusive [inhibitor, single point] |
| O=C(CCS(=O)(=O)c1ccccc1)N(Cc1cccnc1)c1nc2c(F)cccc2s1 |  | active: 2.31 µM |
| CCC(=O)Nc1ccccc1Nc1cc(C#N)c(C#N)cc1[N+](=O)[O-] |  | inconclusive [inhibitor, single point] |
